About 2,200 (0.71%) of roughly 310,000 compounds showed an effect of 50% or more. Effects have a minus sign here. Some of the results follow.
target: human ether-à-go-go-related gene (hERG) potassium channel (human, UniProt Q12809); assay: primary screen, population patch clamp on CHO cells stably expressing hERG
Sequence (Q12809 whole entry, looked up): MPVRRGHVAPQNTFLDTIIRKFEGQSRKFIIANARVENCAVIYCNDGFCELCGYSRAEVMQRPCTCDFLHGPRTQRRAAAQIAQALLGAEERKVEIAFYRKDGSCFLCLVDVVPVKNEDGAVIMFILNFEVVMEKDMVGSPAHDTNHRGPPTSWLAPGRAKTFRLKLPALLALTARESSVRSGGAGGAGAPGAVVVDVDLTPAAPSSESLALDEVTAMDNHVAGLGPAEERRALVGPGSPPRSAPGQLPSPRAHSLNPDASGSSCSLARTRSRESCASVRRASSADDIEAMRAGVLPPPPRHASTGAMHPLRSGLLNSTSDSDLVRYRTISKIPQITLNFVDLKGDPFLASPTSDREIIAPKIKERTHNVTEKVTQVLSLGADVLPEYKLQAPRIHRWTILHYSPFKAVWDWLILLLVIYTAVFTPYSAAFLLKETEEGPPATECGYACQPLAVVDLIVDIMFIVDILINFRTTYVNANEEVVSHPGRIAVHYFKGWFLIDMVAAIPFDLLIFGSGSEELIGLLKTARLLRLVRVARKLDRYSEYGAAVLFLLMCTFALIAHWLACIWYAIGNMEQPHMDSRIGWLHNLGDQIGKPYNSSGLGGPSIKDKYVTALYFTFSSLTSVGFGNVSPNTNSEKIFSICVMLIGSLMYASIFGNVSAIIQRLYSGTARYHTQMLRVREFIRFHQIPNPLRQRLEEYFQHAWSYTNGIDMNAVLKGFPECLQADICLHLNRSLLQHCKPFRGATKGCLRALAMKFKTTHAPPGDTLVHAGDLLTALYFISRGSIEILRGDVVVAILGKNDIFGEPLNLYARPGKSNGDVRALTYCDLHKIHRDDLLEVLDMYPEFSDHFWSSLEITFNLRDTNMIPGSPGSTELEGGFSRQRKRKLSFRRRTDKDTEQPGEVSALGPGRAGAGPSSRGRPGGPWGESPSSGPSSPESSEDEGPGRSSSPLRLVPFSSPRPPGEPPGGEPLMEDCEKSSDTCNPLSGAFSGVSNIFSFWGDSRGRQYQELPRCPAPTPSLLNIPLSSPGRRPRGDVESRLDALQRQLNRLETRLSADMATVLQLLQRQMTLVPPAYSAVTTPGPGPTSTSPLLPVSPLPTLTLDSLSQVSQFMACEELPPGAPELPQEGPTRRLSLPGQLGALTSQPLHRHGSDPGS

Row | Structure (SMILES) | hERG current change (%, negative = inhibition) at 1uM
1 | COc1cc(C(C)=O)ccc1OCC(O)CN1CCN(c2ccccn2)CC1 (centres unmarked) | 5.4%
2 | CC(=O)N(C)N1c2ccccc2CCc2ccccc21 | 18.6%
3 | Cc1cc(C)c2nc(NNC(=O)c3ccc(S(=O)(=O)N4CCCCC4)cc3)sc2c1 | 8.08%
4 | CCN1CCN(C(=O)c2ccc(OCC(=O)Nc3ccc(F)cc3)c(OC)c2)CC1 | -2.25%
5 | O=C(Oc1cc2oc(=O)cc(-c3ccccc3)c2cc1Cl)C1CCCCC1 | 3.15%
6 | CN1CCN(c2ccc(S(=O)(=O)N3CCOCC3)cc2NC(=O)CCc2ccccc2)CC1 | 1.28%
7 | Cc1[nH]nc2c1C(c1ccc(N(C)C)cc1)C1=C(CC(C)(C)CC1=O)N2 (centres unmarked) | 25.2%
8 | COc1ccccc1NC(=O)C1CCN(S(C)(=O)=O)CC1 | 18.2%
9 | NC(=O)CN1CCN(C2CC(=O)N(CCc3ccccc3)C2=O)CC1 (centres unmarked) | 5.11%
10 | Cl.Fc1cccc(CN(C2=NCCN2)c2c(Cl)cccc2Cl)c1 | 12.6%
11 | Cn1cccc1C(=O)C(=O)Nc1ccc(Cl)cc1 | 11.1%
12 | Cc1cccc(N2CCCC2=Nc2ccc(Br)cc2C#N)c1 | 9.09%
13 | O=C(NCCOc1ccccc1)c1cccc(S(=O)(=O)NCc2ccccc2)c1 | 11.8%
14 | COc1ccc(CNC(=O)[C@H](C)NC(=O)C2CCN(C(=O)[C@@H](N)CCSC)CC2)cc1 | 10.7%
15 | CCOC(=O)C1CCCN(C(=O)c2ccc3nc(-c4ccccc4)c(-c4ccccc4)nc3c2)C1 (centres unmarked) | 14.7%
16 | Cc1cc(N(C)C)cc(C)[n+]1[O-] | 11.7%
17 | CCC(C)N(C(=O)Cn1nnc(-c2ccc(Cl)cc2)n1)C1CCS(=O)(=O)C1 (centres unmarked) | 3.46%
18 | CCc1ccc(NC(=O)CO/N=C(\C)c2cc3ccccc3o2)cc1 | 5.18%
19 | CC(=O)Nc1cccc2c1C(=O)N(c1cccc(C)c1)C2=O | 15.6%
20 | N#CCCN(C(=O)COC(=O)c1ccc(S(=O)(=O)N2CCCC2)cc1)c1cccc(Cl)c1 | 12%
21 | CC1=Nc2cc(C(=O)NCCCOC(C)C)ccc2Sc2ccccc21 | 3.61%
22 | CCCN=Cc1sc2ccc(OCC)cc2c1O | 5.92%
23 | CCN(CC(=O)Nc1ccc(OC)cc1)CC(=O)Nc1ccc(Cl)cc1F | -1.53%

Row | Structure (SMILES) | hERG current change (%, negative = inhibition) at 1uM
24 | Cc1nnc(-n2ncc(C#N)c2N)c2nn(-c3cccc(Cl)c3)c(C)c12 | -0.406%
25 | CN(c1ccc(OCC(=O)N2CCCC2)cc1)S(=O)(=O)c1ccc(Cl)cc1 | 0.957%
26 | CCc1ccc(OCC2Cn3c(nc4c3c(=O)[nH]c(=O)n4C)O2)cc1 (centres unmarked) | 13.5%
27 | O=C(NCCCN1CCOCC1)c1ccc(S(=O)(=O)N2CCOCC2)cc1 | 1.48%
28 | Cn1ccc(NC(=O)Nc2ccc(Cl)cc2)n1 | 19.2%
29 | COCCOC(=O)C1=C(C)Nc2ncnn2C1c1ccc(F)cc1 (centres unmarked) | 2.42%
30 | Cc1cccc(NC(=O)COC(=O)c2ccc3c(c2)OCO3)c1C | 8.73%
31 | CC(=O)N1CCc2cc(S(=O)(=O)CCC(=O)N(C)Cc3ccco3)ccc21 | 16.5%
32 | COc1cc(NC(=S)Nc2ncccc2C)cc(OC)c1OC | 16%
33 | O=C1C=C(c2ccc(F)cc2OCc2ccccc2)C[C@@H](c2ccc(F)cc2)C1 | 6.61%
34 | CCc1cc2c(CN3CCN(C)CC3)cc(=O)oc2cc1O | 18.1%
35 | CC(=O)c1c(N2CCN(c3ccccc3)CC2)nc(=S)n(-c2ccccc2)c1C | 2.93%
36 | O=C(OCC(=O)N1N=C(c2ccc(Cl)cc2)CC1c1ccco1)c1ccccc1O (centres unmarked) | 17%
37 | COc1ccccc1CNC(=O)COC(=O)c1ncc(Cl)c(Cl)c1Cl | 8.89%
38 | CCN1CCN(C(=S)Nc2ccc([N+](=O)[O-])cc2)CC1 | -9.28%
39 | O=C(CN1C(=O)/C(=C/c2cccc(Br)c2)SC1=S)Nc1cccnc1 | 13.8%
40 | COc1ccc(OC(=O)c2cccc(S(=O)(=O)N3CC(C)OC(C)C3)c2)cc1 (centres unmarked) | -1.04%
41 | Cc1nn(CCC#N)c2[nH]c(=O)cc(C(F)(F)F)c12 | 11%
42 | O=C(Nc1ncc([N+](=O)[O-])s1)c1cccs1 | 20.4%
43 | O=C(NCCc1ccccc1F)c1ccc2c(c1)OCCO2 | 9.2%
44 | CCOC(=O)[C@@H]1[C@H]2COc3cc(OC)ccc3[C@@H]2N2C(=O)N(c3ccc(Cl)cc3)C(=O)[C@]12C | 6.49%
45 | CCc1ccc(CNC(=O)CCc2nnc(CCc3ccc(OC)cc3)o2)nc1 | -17.9%
46 | CC1CCCC(NC(=O)COC(=O)COc2ccccc2Cl)C1C (centres unmarked) | 11.8%

Row | Structure (SMILES) | hERG current change (%, negative = inhibition) at 1uM
47 | CCn1c(C)cs/c1=N\C(=S)Nc1ccccc1C | 4.76%
48 | CC1Cc2ccccc2N1Cc1nc2cc(Cl)ccc2c(=O)[nH]1 (centres unmarked) | 11.7%
49 | CCOC(=O)[C@@H]1[C@H]2COc3ccc(Br)cc3[C@H]2N2C(=O)N(c3cccc(Cl)c3)C(=O)[C@]12C | 4.01%
50 | CCOc1ccccc1C(=O)NC(C)c1ccc(-n2ccnc2)cc1 (centres unmarked) | -34.8%
51 | COc1ccccc1CCC(=O)Oc1ccccc1C#N | 9.6%
52 | Cc1nc2ccc(Cl)cn2c1C(=O)NN | 16.9%
53 | COc1ccc2[nH]c3c(=O)n(Cc4ccc(C(=O)N5CCCC5)cc4)c(=S)[nH]c3c2c1 | 6.75%
54 | CCOc1ccccc1CNC(=O)Cn1c(=O)oc2ccccc21 | 9.38%
55 | COc1cccc(NC(=O)C2C3C=CC(C3)C2C(=O)O)c1 (centres unmarked) | 5.29%
56 | O=C1/C(=C/c2cccs2)SC(=S)N1NS(=O)(=O)c1ccccc1 | -7.22%
57 | COc1ccccc1NC(=O)c1csc2c1CCCC2 | 3.12%
58 | CCN(CC(=O)Nc1ccc2c(c1)OCCO2)CC(=O)Nc1ccc2c(c1)OCO2 | 17.5%
59 | COCc1[nH]nc2c1C1(C(=O)N(C)c3ccccc31)C(C#N)=C(N)O2 (centres unmarked) | 7.41%
60 | O=C(OCC(=O)N(c1ccccc1)C1CCCCC1)c1ccc(CO)cc1 | 7.97%
61 | COC(=O)C1=C(C)N=C2SCCC(=O)N2C1c1cccs1 (centres unmarked) | 12.5%
62 | COc1cccc(NC(=O)C(=S)NC2CCCCC2)c1 | 5.19%
63 | CC1CC(NC(=O)c2ncn[nH]2)CC(C)(C)C1 (centres unmarked) | -0.213%
64 | CCS(=O)(=O)c1ccc2oc(SCC(=O)Nc3ccc(OC)cc3)nc2c1 | 8.25%
65 | COC(=O)C1C(O)=C(C=NCC(C)N=CC2=C(O)C(C(=O)OC)C(C)(C)CC2=O)C(=O)CC1(C)C (centres unmarked) | 10.8%
66 | COC(=O)c1ccc(C(=O)N2CCCC(N3CCN(c4ccc(F)cc4)CC3)C2)nc1 (centres unmarked) | -35%
67 | NCCc1c(Cc2ccccc2)[nH]c2ccccc12 | -6.52%
68 | N/C(=N\OC(=O)CCCCCN1C(=O)c2ccccc2C1=O)c1ccccc1 | 7.78%
69 | CCOC(=O)c1ccccc1NC(=O)CSc1nc2ccncc2[nH]1 | 14.5%

Row | Structure (SMILES) | hERG current change (%, negative = inhibition) at 1uM
70 | O=C(/C=C1\NC2(CCCC2)Cc2ccccc21)C(=O)N/N=C/c1ccc(O)c(O)c1 | -0.965%
71 | Clc1ccccc1CSc1nncn1-c1cccnc1 | 9.86%
72 | CC1CCN(S(=O)(=O)c2cccc(C(=O)NCc3ccco3)c2)CC1 | 0.766%
73 | Cn1cccc1CC(=O)N/N=C/C=C/c1ccccc1 | 9.48%
74 | Cc1c(C(=O)NCC2CCCO2)oc2ccc(S(=O)(=O)N3CC(C)CC(C)C3)cc12 (centres unmarked) | 16.9%
75 | CC(Sc1ccccc1)C(=O)N1CCN(S(=O)(=O)c2ccc(Cl)cc2)CC1 (centres unmarked) | 5.39%
76 | CC(C)(C)c1nnc(NC(=S)Nc2ccccc2)s1 | 11.9%
77 | Cc1noc(C)c1COC(=O)C1COc2ccccc2O1 (centres unmarked) | 1.85%
78 | C/C=C(\C)CN1CCCC(N(C)CCc2ccc(OC)c(OC)c2)C1 (centres unmarked) | 8.4%
79 | CCC1CCCCN1CCCNC(=O)CN1C(=O)CSc2ccc(S(=O)(=O)N3CCOCC3)cc21 (centres unmarked) | 14.2%
80 | COc1ccc(C(C)C)cc1S(=O)(=O)N1CC(C)OC(C)C1 (centres unmarked) | 10.7%
81 | O=C(N/N=C/c1ccc(Br)o1)c1cc([N+](=O)[O-])cc([N+](=O)[O-])c1 | 8.21%
82 | Cc1cc2nc(-c3cccc(NC(=O)c4ccc(Br)o4)c3)oc2cc1C | 9.9%
83 | CCN(CC)CCCNc1cc(C(F)(F)F)c(C#N)c2nc3ccccc3n12 | -3.04%
84 | O=C(O)CSCC(=O)Nc1ccc(C(=O)O)cc1 | 14.4%
85 | C=CCn1c(SCC(=O)Nc2ccc3c(c2)OCCO3)nnc1-c1ccco1 | -23.5%
86 | CC1CCN(c2cc(Br)c([N+](=O)[O-])cc2F)CC1 | 7.48%
87 | O=C(CC(c1ccccc1)c1ccccc1O)N1CCCCC1 (centres unmarked) | 12.6%
88 | CCOC(=O)CNc1nc(Cl)nc(Nc2ccc(C)cc2)n1 | 9.68%
89 | CCc1sc(C(=O)Nc2ccc(F)cc2C)cc1C | 15.8%
